Patent US9050294B2, “Treatment of neural diseases or conditions” (Royal Institution for the Advancement of Learning/McGill …, priority 2008, dated 2015)

Experiments:
[1] = system: SOD1^G93A transgenic mice; experiment: Motor function analysis by Rota-rod in ALS mouse model; assay type: in vivo
Procedure: Motor function was assessed by Rota-rod (Med Associates Inc., St. Albans, Vt.) two times per week beginning at 70 days of age. An acclimatization period of 3 days was implemented before beginning measurements to allow animals to become familiar with the apparatus. Animals were placed on the rod with a constant rotation of 16 rpm and the time latency to fall was used as a measurement of motor function. Animals remaining on the apparatus after 300 seconds were given a perfect score and the trial was ended. Three consecutive trials were performed with a one minute rest period between each trial and the best result of the three trials was recorded. Mice used for plasma analysis were also included in the Rota-rod experiments as it was determined after evaluating their performance that it was not impaired. In the rare event that an animal's performance improved, the lower “pre-improvement” time point was dropped as it was not considered representative of their true ability given the progressive nature of paralysis in SOD1^G93A mice.

[2] = system: spinal cord injury (SCI) in BALB/c mice; experiment: Histological analysis 28 days after SCI (GFAP tissue sparing, cresyl violet neuron counts, 5-HT innervation); assay type: in vivo, mouse; details: 5 mg/kg/day oral
Description: (§1) Fenretinide preparation and treatment.
(A) For spinal cord injury studies: 28 days post-lesion, mice were perfused with 4% paraformaldehyde in 0.1M phosphate buffer (PB). 5 mm length of the spinal cord containing the lesion site was removed, cryoprotected with 30% sucrose in 0.1M PB, and cut in serial sections (16 μm thick). Serial tissue sections were immunostained using rat polyclonal antibodies against glial fibrillary acidic protein (GFAP) (1/400; Zymed Labs) and rabbit polyclonal antibodies against 5-hydroxytryptamine (5-HT) (1/5000; Sigma, Aldrich). In addition, one series of serial sections of the spinal cord were stained with cresyl violet to quantify neuronal loss. Tissue sections were viewed with an Axioskop™ 2 Plus microscope (Zeiss) and images captured using a QImaging Retiga™ 1300 camera, and quantification done using BioQuant™ Nova Prime image analysis system (BioQuant Image Analysis Corp.). Tissue sparing was calculated by delineating the GFAP stained areas, and neuronal survival was assessed by counting the neuron profiles in the ventral horn below the level of the central canal of the spinal cord in tissue sections stained with cresyl violet. Assessment of serotonergic fiber innervation was performed by calculating the area occupied by serotonergic axons in the ventral horns of spinal cord sections taken at a distance of 1000 μm caudal to the lesion site.

[3] = system: SOD1^G93A transgenic mice; experiment: Plasma lipid peroxidation/oxidative stress markers (NT, MDA) in ALS mouse model; assay type: in vivo
[4] = system: microglial cells stimulated with LPS; experiment: In vitro microglia activation: TNFα release after LPS stimulation (ELISA); assay type: cell-based, mouse; details: from 18 h before and during LPS 10 ng/ml for 6 h, vs untreated cells
Procedure: Mouse microglial cultures were prepared as described previously (Saura J et al., 2003. Glia 44:183-189). Briefly, confluent mixed glial cultures prepared from the neonatal cerebral cortex were treated for 30 min with trypsin (0.08%) in the presence of 0.25 mM EDTA and 0.5 mM Ca^2+. This treatment results in the detachment of an intact layer of cells containing virtually all the astrocytes and leaves a population of firmly attached cells identified as >98% microglia as assessed by counts of CD11b-immunoreactive cells (Saura J et al., (2003) Glia 44:183-189). These microglial cells were stimulated by adding lipopolysaccharides (LPS) (10 ng/ml) in DMEM/F12 with 1% penicillin/streptomycin and 1% vitamins for 6 h. The determination of the LPS concentration and incubation time was based on earlier experiments used to optimize conditions for measuring TNFα release from activated microglia. Treatment with fenretinide (0.625 or 1.25 μM in DMEM/F12) was initiated 18 hours prior to LPS stimulation, and continued together with LPS stimulation. The protocol for fenretinide treatment was based on previous studies on toxicity and reduction of TNFα levels in macrophages. The amount of TNFα released in 50 μl of the conditioned medium was determined by ELISA.

[5] = system: mRNA of IL-1β, TNF-α, MCP-1, COX-1, COX-2, iNOS, cPLA2 GIVA, iPLA2 GVIA and sPLA2 GIIA in injured spinal cord; experiment: RT-PCR of pro-inflammatory mediator mRNA in injured spinal cord; assay type: in vivo, mouse; details: 1 dpi, vs vehicle
Procedure: as §1
A 5 mm length of the spinal cord containing the lesion site was harvested at 1 dpi from experimental and control groups. The three spinal cords were pooled and RNA was extracted using RNeasy™ Lipid Tissue kit (Qiagen, Mississauga, Ontario, Canada). PCR amplification was performed with specific primers for mouse IL-1β, TNF-α, MCP-1, COX-1, COX-2, iNOS, cPLA2 GIVA, iPLA2 GVIA and sPLA2 GIIA (Table I). Peptidylprolyl isomerase A (PPIA) was used as a control to normalize the cDNA samples used for PCR amplification. Changes in mRNA expression between vehicle- and fenretinide-treated samples were quantified as a ratio of the PPIA optical density value using ImageQuant™ 5.0 software.

[6] = system: SOD1^G93A transgenic mice; experiment: Plasma essential fatty acid profiles in ALS mouse model (TLC/ELISA); assay type: in vivo; details: for plasma phospholipid-bound DHA: n=8
[7] = system: SOD1^G93A transgenic mice; experiment: Survival to clinical endpoint in ALS mouse model
[8] = system: SOD1^G93A transgenic mice; experiment: Fatty acid levels in ALS-affected organs (lumbar spinal cord, brain stem, cerebral cortex); assay type: in vivo, mouse; details: at clinical endpoint
[9] = system: humans; details: cited from earlier work

SMILES: CC1=C(/C=C/C(C)=C/C=C/C(C)=C/C(=O)Nc2ccc(O)cc2)C(C)(C)CCC1 [fenretinide, all-trans-N-(4-hydroxyphenyl) retinamide]
- decline in motor function in sham-treated animals earlier than in fenretinide-treated group (delay of disease onset) ([1]; 5 mg/kg): 2 weeks
- Rota-rod performance (latency to fall) ([1]; day 112, 5 mg/kg fenretinide, 16 rpm, max 300 s, vehicle 162±23): 216 ± 25 s
- Rota-rod performance (latency to fall) ([1]; day 116, 5 mg/kg, vehicle 98±18): 154 ± 27 s
- Rota-rod performance (latency to fall) ([1]; day 119, 5 mg/kg, vehicle 46±13, in s (unit assumed)): 109±27
- reduction of tissue loss (GFAP staining) vs vehicle [2]: about 20%
- greater serotonergic innervation in ventral horn vs vehicle ([2]; 1 mm caudal to lesion epicenter): ~60%
- plasma nitrotyrosine (NT) vs control ([3]; 60 days of age): lower levels
- reduction of plasma malonyldialdehyde (MDA) vs control ([3]; 120 days of age, p=0.001): about 38%
- plasma nitrotyrosine (NT): control animals higher than fenretinide-treated mice ([3]; day 120, p≦0.001): 45%
- reduction in protein levels of TNFα in supernatant ([4]; 0.625 μM fenretinide): 20%
- reduction in protein levels of TNFα in supernatant ([4]; 1.25 μM fenretinide): 40%
- COX-1 mRNA level [5]: No changes
- COX-2 mRNA level [5]: No changes
- MCP-1 mRNA level [5]: No changes
- cPLA2 GIVA mRNA level reduced [5]: not
- decrease in iNOS mRNA level [5]: 2 fold
- iPLA2 GVIA mRNA level reduced [5]: not
- reduction of sPLA2 GIIA mRNA level [5]: about 50%
- reduction of IL-1β mRNA level ([5]; normalized to PPIA): ~40%
- reduction of TNF-α mRNA level ([5]; normalized to PPIA): about 30%
- plasma phospholipid-bound AA vs control ([6]; 60 days of age): slightly lower
- statistically significant differences in plasma ceramide concentrations vs control ([6]; any of the time points (day 60, 90, 120, clinical endpoint)): not observed
- plasma phospholipid-bound AA vs vehicle ([6]; at the clinical endpoint): no significant differences
- plasma phospholipid-bound DHA vs vehicle ([6]; at the clinical endpoint): no significant differences
- plasma total fatty acids vs vehicle ([6]; at the clinical endpoint): no significant differences
- increase of plasma phospholipid-bound DHA vs control ([6]; day 60): about 30%
- plasma phospholipid-bound DHA ([6]; day 60, 5 mg/kg, control 2.22±0.15): 2.88±0.18
- decrease of plasma phospholipid-bound AA vs control ([6]; day 120): about 12%
- increase of plasma phospholipid-bound DHA vs control ([6]; day 120): about 25%
- plasma phospholipid-bound AA ([6]; day 120, n=7, control 39.50±0.94): 34.87±0.91
- plasma phospholipid-bound DHA ([6]; day 120, sham 2.63±0.07): 3.26±0.17
- median survival ([7]; 5 mg/kg from 30 d of age, vehicle 143.5): 148.5 days
- fenretinide-treated animals alive after all control mice had reached the endpoint ([7]; 5 mg/kg, Kaplan-Meier): 17%
- increase in survival from the onset of disease ([7]; 5 mg/kg, vs control): ~10%
- AA level in brain stem vs vehicle [8]: Neither AA nor DHA levels reached a significant difference
- DHA level in brain stem vs vehicle [8]: Neither AA nor DHA levels reached a significant difference
- increase in phospholipid-bound DHA in lumbar spinal cord vs vehicle ([8]; p≦0.05): about 28%
- phospholipid-bound arachidonic acid lower in cerebral cortex vs vehicle ([8]; p≦0.05): roughly 10%
- generalized vascular damage in humans ([9]; Reynolds and Lemons 2001): does not induce generalized vascular damage
- side effects in clinical trials ([9]; fenretinide used on a prophylactic basis (Ulukaya and Wood 1999)): minimal side effects
